The GPR68 mutational scans of Howard et al. (2025)

B1: GPR68, Q15743 (parent)
chain: MGNITADNSSMSCTIDHTIHQTLAPVVYVTVLVVGFPANCLSLYFGYLQIKARNELGVYLCNLTVADLFYICSLPFWLQYVLQHDNWSHGDLSCQVCGILLYENIYISVGFLCCISVDRYLAVAHPFRFHQFRTLKAAVGVSVVIWAKELLTSIYFLMHEEVIEDENQHRVCFEHYPIQAWQRAINYYRFLVGFLFPICLLLASYQGILRAVRRSHGTQKSRKDQIQRLVLSTVVIFLACFLPYHVLLLVRSVWEASCDFAKGVFNAYHFSLLLTSFNCVADPVLYCFVSETTHRDLARLRGACLAFLTCSRTGRAREAYPLGAPEASGKSGAQGEEPELLTKLHPAFQTPNSPGSGGFPTGRLA

Legend:
[1] = variants of: B1; assay: cAMP reporter score (Enrich2 score, wild type = 0); higher = more signal; HEK293T, FACS bins
[2] = variants of: B1; assay: surface expression score (Enrich2 score, wild type = 0); higher = more signal; HEK293T, FACS bins

| Variant | cAMP reporter score ([1]; pH 5.5) | cAMP reporter score ([1]; pH 6) | cAMP reporter score ([1]; pH 6, modulator: ogerin) | cAMP reporter score ([1]; pH 6.5, modulator: ogerin) | surface expression score [2] |
| --- | --- | --- | --- | --- | --- |
| MGNITADNSSMSCTIDHTIHQTLAPVVYVTVLVVGFPANCLSLYFGYLQIKARNELGVYLCNLTVADLFYICSLPFWLQYVLQHDNWSPGDLSCQVCGILLYENIYISVGFLCCISVDRYLAVAHPFRFHQFRTLKAAVGVSVVIWAKELLTSIYFLMHEEVIEDENQHRVCFEHYPIQAWQRAINYYRFLVGFLFPICLLLASYQGILRAVRRSHGTQKSRKDQIQRLVLSTVVIFLACFLPYHVLLLVRSVWEASCDFAKGVFNAYHFSLLLTSFNCVADPVLYCFVSETTHRDLARLRGACLAFLTCSRTGRAREAYPLGAPEASGKSGAQGEEPELLTKLHPAFQTPNSPGSGGFPTGRLA [H89P] | -1.01 | -1.06 | -2.91 | -0.611 | -0.934 |
| MGNITADNSSMSCTIDHTIHQTLAPVVYVTVLVVGFPANCLSLYFGYLQIKARNELGVYLCNLTVADLFYICSLPFWLQYVLQHDNWSQGDLSCQVCGILLYENIYISVGFLCCISVDRYLAVAHPFRFHQFRTLKAAVGVSVVIWAKELLTSIYFLMHEEVIEDENQHRVCFEHYPIQAWQRAINYYRFLVGFLFPICLLLASYQGILRAVRRSHGTQKSRKDQIQRLVLSTVVIFLACFLPYHVLLLVRSVWEASCDFAKGVFNAYHFSLLLTSFNCVADPVLYCFVSETTHRDLARLRGACLAFLTCSRTGRAREAYPLGAPEASGKSGAQGEEPELLTKLHPAFQTPNSPGSGGFPTGRLA [H89Q] | -0.539 | -1.19 | -1.3 | -1.36 | 1.07 |

Scores with a large standard error are left out. Not listed are two conditions whose scores span a narrow range. Read del as a deletion of the residues named and ins as an insertion between two positions. For some of these results: How much ogerin was present is not stated here.
